Assay results taken from the supplement of paper PMC11417369.
± gives the standard deviation of the averaged measurements. The list shows a part of the results.

What follows are sequences tested on PfAP2-LT AP2 domain (GST-tagged) (assay: gcPBM binding intensity (ln(normalized median fluorescence intensity)); higher = stronger DNA binding).
How it was run: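 After 1 h on an Agilent 4 × 180k array of primer-extended double-stranded 36-bp intergenic genomic probes and negative controls, bound GST-tagged P. falciparum DNA-binding domains were detected with Alexa488 anti-GST antibody and scanned at 488 nm. The domains had been expressed in E. coli, and binding took place in 1× PBS with 1% milk, 0.2 mg/ml BSA, 0.5% salmon testes DNA and 0.03% Triton X-100. Binding intensity is the highest Masliner-normalised natural-log median intensity across replicate spots of either probe orientation.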

Row | Sequence | gcPBM binding intensity (ln)
1 | TAAATTAAAAGACACACACACAAAAAAAAAAAAAAA [CACACA_site7131] | 9.4 ± 0.44
2 | GGAAACTAAAGGAATAAAACTATGGAAATTAATTAA [CACACA_negctrl_site1647] | 8.62 ± 0.57
3 | TACTATTTAAAATATGAACACACATTATTTGTTTTA [CACACA_site8870] | 8.7 ± 0.47
4 | AGATGATATAATGGCACACAAATATTTTATTATAAA [CACACA_site3553] | 8.84 ± 0.52
5 | TAAATTTATAAATCACGTACATATTTATTTATATTT [XGTACX_site4532] | 8.62 ± 0.52
6 | ATAATTTCATAATACGTGCACATAATATATAAAAAA | 8.82 ± 0.42
7 | ATTCAAAATTATAGGTGTACGTATTTTTTTTTTTTT [XGTACX_site7177] | 8.7 ± 0.55
8 | AAGAAAAAAAAAATTACACACTGCGCAGATACACAA [CACACA_site1289] | 9.03 ± 0.38
9 | TGGTAATCCACATACACACACACATACACATATATA [CACACA_site2727] | 9.83 ± 0.28
10 | TAATATGTATATAAAAGTACAGACGATTATAATTAT [XGTACX_site173] | 8.9 ± 0.38
11 | TTTTGTAGATATGACTGTACATATTTTATACATAAC [XGTACX_site971] | 8.68 ± 0.41
12 | AAAAAATAAATAAATACACACAAATATATATATATA [CACACA_site2543] | 9.45 ± 0.24
13 | ATATATATATGTAAGAGTACACAAAAATATGTATGT [XGTACX_site4335] | 9.17 ± 0.41
14 | CACATACCTATATACACACACAAAATAATAAAATAA [CACACA_site7150] | 9.53 ± 0.33
15 | ACTAATATTTTATAAAGTACAAATTAATAAAATTCA [XGTACX_site5817] | 8.43 ± 0.57
16 | AGAATGGATTAGCTAGCACACACAAAAAAAAAAAAA [CACACA_site8995] | 9.04 ± 0.66
17 | TATATATATATATTGACACACATGTATTTCAATATT [CACACA_site2832] | 9.39 ± 0.057
18 | AAGACAACATAAATATGTACATATATTTATTATTTT [XGTACX_site1792] | 8.82 ± 0.39
19 | TACAAAAAGAATGAAAAATATATAATAAAAATAAAA [XGTACX_negctrl_site159] | 8.54 ± 0.57
20 | AAGTATGGAAAGGAATATAAATTAATACTTTCATTG [XGTACX_negctrl_site131] | 8.55 ± 0.6
21 | CTTATATATTGCCCTTCACACACACCCATATATATA [CACACA_site8795] | 9.55 ± 0.34
22 | TTTCAAAGGAAATGGTGTACACAATTTTTCCTTTTT [XGTACX_site2340] | 8.46 ± 0.38

Row | Sequence | gcPBM binding intensity (ln)
23 | TTTTATTATTCTTCTCTCTTATATATATATATATAT [CACACA_negctrl_site646] | 9.06 ± 0.44
24 | ATAACATAGGCAATCACACATATCATTAAGGTGTCA [CACACA_site5233] | 9.04 ± 0.4
25 | ACTGTGGTATAAAGTTGTACATGTTTTTATATATTT [XGTACX_site5257] | 8.99 ± 0.4
26 | TACTTTTATATGAATACACACAGGAATATATATATG [CACACA_site3568] | 8.88 ± 0.37
27 | TTACTTTAACCTTCTCGTACTTATTTACTTTATTCT [XGTACX_site7801] | 8.99 ± 0.47
28 | TTAAAAGTTATGGATACACACATATAAATATAGATT [CACACA_site7175] | 8.85 ± 0.41
29 | TTAATAAATATGTTTACACACGAAAATACATTTTTT [CACACA_site8245] | 8.76 ± 0.5
30 | TCGATTAAAACACAAAAATATAAATACATTGATAAA [TGCATGCA_negctrl_site523] | 8.56 ± 0.52
31 | TAATTTTCATAATTTTGTACTTAACGTTTTACCTTG [XGTACX_site8048] | 8.86 ± 0.59
32 | ACATATATATATATATATATATATATATATTCTTAA [CACACA_negctrl_site930] | 9.34 ± 0.3
33 | ATTTTAATTTTTTAAGTATTATATGAATATTTATTA [TGCATGCA_negctrl_site142] | 8.35 ± 0.5
34 | GTCTAAAAATAAAAAGTGCATTTGTTTAATATTTTG | 8.5 ± 0.47
35 | TGATTGTATTAAAATGCACACATATCAAGAGGAATT [CACACA_site7985] | 9.03 ± 0.35
36 | TTAATTTTTTTTTTTTGTACTCATATGTAATTCATC [XGTACX_site3071] | 8.66 ± 0.58
37 | ATTAAAACAAATATGTGTACATAAAAATATATATAT [XGTACX_site8394] | 8.97 ± 0.47
38 | TATTATTATTATTATTTTAAAAGAAATAAAAATATG [XGTACX_negctrl_site119] | 8.02 ± 0.46
39 | TTTTAATTTTGTTGTTGTACAAATAACATGTGAGGG [XGTACX_site4401] | 8.72 ± 0.38
40 | ATATACATTAAATGAACACACATAAATAAATTACAT [CACACA_site2852] | 9.11 ± 0.47
41 | TATTTTATCATTTTTTTTATGTCTTTATTTCACTTG [CACACA_negctrl_site1398] | 8.8 ± 0.61
42 | CTGTGTTTTGGTTGTACACACGCTACATTATATATT [CACACA_site5487] | 9.36 ± 0.39
43 | AACACATAAAAAAGGTGTACCATAAAATATACATAC [XGTACX_site4478] | 9.08 ± 0.54
44 | ATATATATATATATATCATTTATTTAAAAATTTTTT [TGCATGCA_negctrl_site228] | 9.265 ± 0.078

Row | Sequence | gcPBM binding intensity (ln)
45 | CTCATTTTTGTACAGGTGCACTTATCGTTACACTAT | 9.27 ± 0.46
46 | ATATACACATTAATAACACACAATATGATAACAAAT [CACACA_site7670] | 9.21 ± 0.35
47 | AATCCTTACGAACACACACACACGAATAAATAAAAA [CACACA_site6363] | 9.91 ± 0.26
48 | TAGAATTAAGTTATTGCACACAGGAAAAGTTTCATA [CACACA_site1634] | 8.8 ± 0.41
49 | TCTTCGAAACTATCACTCTCACAATTCATTTATTTT [TGCATGCA_negctrl_site156] | 8.77 ± 0.52
50 | ATAAATAAGAAAAATTGTACAATATTTTTTAGGATA [XGTACX_site3163] | 8.62 ± 0.42
51 | AAAAGTTTAAGTTTTCGAAAATTTACCAAAAAAAAA [CACACA_negctrl_site1644] | 8.4 ± 0.67
52 | GTGCATAAATCATACACACACACATATATAAATATA [CACACA_site7188] | 9.77 ± 0.33
53 | AAAGTTTTTATAAAAAAAAAAATAAATACCATATAT [XGTACX_negctrl_site113] | 9.07 ± 0.52
54 | GTGTTTTTATGTGAATGTACATATTTACTATCACAC [XGTACX_site2388] | 9.21 ± 0.28
55 | TACTATAACCCACATACACACAAAAAAAAAAAAAAA [CACACA_site4454] | 9.04 ± 0.42
56 | TATACAGATGGACACACACACATAAATAAATATATA [CACACA_site4863] | 9.82 ± 0.3
57 | TTTATTTTTAACAGTGCACACATAACTTAATTATAT [CACACA_site8681] | 9.05 ± 0.4
58 | TATTATATATTTAATAGTACATATAAAATAATAAGG [XGTACX_site4823] | 8.55 ± 0.47
59 | TGGTTTATTTATTAAGTGCATAAATGCAATATATAT | 8.59 ± 0.36
60 | TTAACTTCTTTAAAATGTACATATATTAAATAATAA [XGTACX_site3391] | 8.27 ± 0.35
61 | AAAAAATATAGATGCACACACAAAAAAACAAATTAA [CACACA_site6718] | 9.23 ± 0.43
62 | TTTATGTAATATACATGTACAGAATATAAAATATAT [XGTACX_site6906] | 8.73 ± 0.41
63 | TATTCTTACATCACCTCACACATTTAATATTCCTTA [CACACA_site4693] | 8.83 ± 0.51
64 | ATATATATATATCAGAGTACATTCTTTAAAATATAT [XGTACX_site5915] | 8.76 ± 0.12
65 | AGATTTTGAAATTATAAAAAAATTTCACTTCATTTA [CACACA_negctrl_site888] | 8.22 ± 0.47
66 | GTATTATTATTTTATGCATGTACATTGAATTATATT [TGCATGCA_site34] | 9.03 ± 0.38

Row | Sequence | gcPBM binding intensity (ln)
67 | AAATAAAACAGACACACACACACATACACAAAAAAA [CACACA_site7753] | 10.1 ± 0.22
68 | TATAAATATGTATATGCATGTGGAATATATAATTAA [TGCATGCA_site226] | 8.79 ± 0.35
69 | ATATGAGTATAAAAATGTACGGAGCAACTAAATATA [XGTACX_site620] | 9.03 ± 0.45
70 | TGTCACCTATTTTTTTGTACGTATGTCCATTTTTTT [XGTACX_site4368] | 9.15 ± 0.62
71 | ATTACAACCACATTGACATGCAAATGTAGAGGGGGA [TGCATGCA_site694] | 9.43 ± 0.085
72 | AAAAAAAAAGAGGCGTGTACATATATAATTTAAATT [XGTACX_site6827] | 9.04 ± 0.52
73 | TGTTCTAATATTTGTTGTACATTTACATTTCTCTCT [XGTACX_site2585] | 9.01 ± 0.42
74 | TTATTAAAGTATAACTGTACATGCGAGTAAAAGAAT [XGTACX_site7388] | 9.01 ± 0.57
75 | ATAATAGAAACAAACAGTACACATACCTAAAAGGAA [XGTACX_site8647] | 8.97 ± 0.49
76 | TATTTTATTTCAAATCTTAATAATTGTAATTCTTCA [XGTACX_negctrl_site442] | 8.28 ± 0.47
77 | TGTGTAATACATAATACACACATGTATATGTCGCAT [CACACA_site4757] | 9.21 ± 0.26
78 | ATTTTTAAAATAAATACATGCATATATTTATATGTT [TGCATGCA_site394] | 8.69 ± 0.42
79 | TTTTAATTAGAAATCATACACACATATATATATATA [CACACA_site174] | 9.25 ± 0.17
80 | ATTTACATAAACGTCTGTACTAATATACAATTTTCT [XGTACX_site1700] | 8.8 ± 0.45
81 | TATATATAGAAACACACACACATATATATATATATT [CACACA_site4115] | 9.73 ± 0.24
82 | CATAAAATTGTATTTTGTACACATTTTGTATACATT [XGTACX_site5705] | 8.95 ± 0.36
83 | AATAGGATATGGTACATTTTTTGTATACTTTTTGTT [CACACA_negctrl_site1804] | 8.91 ± 0.47
84 | ATAAATTCTATGTATACACACATATATAATATATAT [CACACA_site2689] | 9.15 ± 0.35
85 | AAACAAGTAATTGTTATTATTATTATATTATTATTA [CACACA_negctrl_site402] | 8.37 ± 0.47
86 | TATTCCTATATACAGCGTACAAAAAATAATATGTAT [XGTACX_site8112] | 8.69 ± 0.33
87 | TATGGAACACACCTTAATATGTGATAAAATATGATA [GTGCAC_negctrl_site718] | 8.99 ± 0.45
88 | GTTATTAAATAATTCACACACATATATATATATATA [CACACA_site2260] | 9.74 ± 0.24
